This is one part of the list.
How the values were obtained:
HSkMC = human skeletal muscle cells; test: cytotoxicity call (relative viability < 0.9); details: 10 µM
HepG2 = test: cytotoxicity call (relative viability < 0.9); details: 10 µM
S. aureus RN4220 = test: growth inhibition call (relative growth <= 0.2); details: 50 µM

| Structure (SMILES) | cytotoxicity call (HSkMC) | cytotoxicity call (HepG2) | growth inhibition call (S. aureus RN4220) |
| --- | --- | --- | --- |
| C[C@@H]1CN([C@H](C)CO)C(=O)Cc2cc(NC(=O)CCC(F)(F)F)ccc2O[C@H]1CN(C)Cc1ccc(-c2ccccc2)cc1 | inactive | active | inactive |
| C[C@H]1CCCCO[C@@H](CN(C)Cc2ccc(C(F)(F)F)cc2)[C@@H](C)CN([C@@H](C)CO)C(=O)c2cc(NC(=O)Cc3ccccc3)ccc2O1 | inactive | inactive | inactive |
| C[C@H](CO)N1C[C@H](C)[C@H](CN(C)S(=O)(=O)c2ccccc2F)Oc2ncc(C#Cc3ccccc3)cc2C1=O | inactive | inactive | inactive |
| C[C@H]1CN([C@@H](C)CO)C(=O)c2cc(/C=C/c3ccccc3)cnc2O[C@@H]1CN(C)C(=O)Nc1ccc(C(F)(F)F)cc1 | inactive | inactive | inactive |
| C[C@@H]1CN([C@H](C)CO)C(=O)Cc2cc(NC(=O)CCCCCC(=O)Nc3ccccc3N)ccc2O[C@@H]1CN(C)CC1CCCCC1 | active | inactive | inactive |
| C[C@H]1CN([C@@H](C)CO)C(=O)c2cc(C#Cc3ccccc3F)cnc2O[C@@H]1CN(C)S(=O)(=O)c1ccccc1F | inactive | inactive | inactive |
| CCC12CCCN3CCc4c(n(c5ccccc45)C(O)(C(=O)OC)C1)C32 (stereo unspecified) | inactive | inactive | inactive |
| c1ccc(C2=Nc3ccccc3N=C(c3ccccc3)C2)cc1 | inactive | inactive | inactive |
| CNCCC=C1c2ccccc2CCc2ccccc21.Cl | inactive | active | inactive |
| C[C@H]1CCCCO[C@H](CN(C)C(=O)C2CCCCC2)[C@@H](C)CN([C@@H](C)CO)C(=O)c2cc(NC(=O)Nc3cccc4ccccc34)ccc2O1 | inactive | inactive | inactive |
| Cc1ccc(S(=O)(=O)N(C)C[C@H]2Oc3ccc(NC(=O)C4CC4)cc3CC(=O)N([C@@H](C)CO)C[C@@H]2C)cc1 | inactive | inactive | inactive |
| CC(C)C#Cc1ccc2c(c1)O[C@H](CN(C)C(=O)Cc1ccccn1)[C@H](C)CN([C@@H](C)CO)S2(=O)=O | inactive | inactive | inactive |
| C[C@@H]1CCCCO[C@H](CN(C)C(=O)Nc2ccc3c(c2)OCO3)[C@H](C)CN([C@H](C)CO)C(=O)c2cc(NC(=O)Nc3ccccc3)ccc2O1 | inactive | inactive | inactive |
| CC1OC(OC2C(CO)OC(OC3C(CO)OC(O)C(O)C3O)C(O)C2O)C(O)C(O)C1NC1C=C(CO)C(O)C(O)C1O (stereo unspecified) | inactive | inactive | inactive |
| COCc1cn(CC[C@H]2CC[C@@H](NC(=O)CCN3CCCCC3)[C@@H](CO)O2)nn1 | inactive | inactive | inactive |
| CC(C)NCC(O)c1ccc(O)c(O)c1.Cl (stereo unspecified) | inactive | active | inactive |
| Cn1cc[nH]c1=S | inactive | inactive | inactive |
| Cc1ccc(S(=O)(=O)N[C@@H](Cc2ccccc2)C(=O)NCCn2cc(-c3cccc(/C=C/C(=O)NO)c3)nn2)cc1 | inactive | inactive | inactive |
| CC(CCC(=O)O)C1CCC2C3CCC4CCCCC4(C)C3CCC12C (stereo unspecified) | inactive | inactive | inactive |

| Structure (SMILES) | cytotoxicity call (HSkMC) | cytotoxicity call (HepG2) | growth inhibition call (S. aureus RN4220) |
| --- | --- | --- | --- |
| CCCCC(=O)c1ccc(O)cc1 | inactive | inactive | inactive |
| COc1ccc([C@H]([C@H](Cc2ccccc2)OC(C)=O)N(CC#C[C@@H](O)c2ccccc2)[C@@H](Cc2ccccc2)C(OC)OC)cc1 | inactive | active | inactive |
| COCC#Cc1cnc2c(c1)C(=O)N([C@H](C)CO)C[C@H](C)[C@@H](CN(C)C(=O)c1ccc3c(c1)OCO3)O2 | inactive | inactive | inactive |
| C[C@H](CO)N1C[C@H](C)[C@H](CN(C)Cc2ccc(Cl)c(Cl)c2)Oc2ccc(NS(=O)(=O)c3cccs3)cc2C1=O | inactive | inactive | inactive |
| Cc1ccccc1S(=O)(=O)N1C[C@@H](O)COC[C@@H]2O[C@H](CC(=O)N3CCC(Cc4ccccc4)CC3)CC[C@H]21 | inactive | inactive | inactive |
| C[C@H](CO)N1C[C@H](C)[C@@H](CN(C)S(=O)(=O)c2ccc(Cl)cc2)Oc2ccc(NC(=O)Nc3ccc(C(F)(F)F)cc3)cc2CC1=O | inactive | active | inactive |
| CC(=O)Nc1ccc(OC(=O)c2ccccc2O)cc1 | inactive | inactive | inactive |
| Cc1noc(C)c1S(=O)(=O)Nc1ccc2c(c1)CC(=O)N([C@@H](C)CO)C[C@@H](C)[C@H](CN(C)Cc1ccc(Oc3ccccc3)cc1)O2 | inactive | inactive | inactive |
| C[C@@H]1CCCCO[C@H](CN(C)C(=O)Nc2ccc(C(F)(F)F)cc2)[C@H](C)CN([C@H](C)CO)C(=O)c2cc(NC(=O)Nc3ccc(F)cc3)ccc2O1 | inactive | inactive | inactive |
| C[C@H]1CN([C@@H](C)CO)C(=O)c2cc(NC(=O)Nc3ccc4c(c3)OCO4)ccc2O[C@H]1CN(C)Cc1ccc(-c2ccccc2)cc1 | inactive | inactive | inactive |
| CN(C)CC(=O)N[C@@H]1CC[C@@H](CCNS(=O)(=O)c2ccccc2)O[C@@H]1CO | inactive | active | inactive |
| C[C@H](CO)N1C[C@H](C)[C@H](CN(C)CC2CC2)Oc2ccc(NS(=O)(=O)c3cccs3)cc2CC1=O | inactive | inactive | inactive |
| C[C@@H]1CN([C@H](C)CO)S(=O)(=O)c2ccc(C#Cc3ccncc3)cc2O[C@H]1CN(C)S(=O)(=O)c1ccccc1 | inactive | active | inactive |
| C[C@H](CO)N1C[C@H](C)[C@H](CN(C)Cc2ccc(-c3ccccc3)cc2)Oc2ccc(NS(=O)(=O)c3ccccc3)cc2C1=O | inactive | inactive | inactive |
| C[C@@H]1CN([C@H](C)CO)C(=O)c2cc(NC(=O)Cc3cn(C)c4ccccc34)ccc2O[C@@H]1CN(C)Cc1ccc(C(=O)Nc2ccccc2N)cc1 | inactive | inactive | inactive |
| C[C@H](CO)N1C[C@H](C)[C@@H](CN(C)Cc2ccc(C(=O)Nc3ccccc3N)cc2)Oc2ccc(NC(=O)Nc3ccc(F)cc3)cc2C1=O | inactive | inactive | inactive |
| CNC[C@@H]1OCCCC[C@@H](C)Oc2ccc(NC(=O)Nc3ccc(C(F)(F)F)cc3)cc2C(=O)N([C@H](C)CO)C[C@@H]1C | inactive | inactive | inactive |
| C[C@@H]1CN([C@@H](C)CO)S(=O)(=O)c2ccc(C#Cc3ccncc3)cc2O[C@@H]1CN(C)C(=O)c1ccncc1 | inactive | inactive | inactive |
| NC[C@@H]1O[C@H](C23CC4CC(CC(C4)C2)C3)Cc2c1ccc(O)c2O | inactive | inactive | active |

| Structure (SMILES) | cytotoxicity call (HSkMC) | cytotoxicity call (HepG2) | growth inhibition call (S. aureus RN4220) |
| --- | --- | --- | --- |
| C[C@H]1CCCCO[C@H](CN(C)C(=O)Nc2ccccc2)[C@@H](C)CN([C@@H](C)CO)C(=O)c2cc(NS(=O)(=O)c3cccs3)ccc2O1 | inactive | inactive | inactive |
| C[C@@H]1CN([C@@H](C)CO)C(=O)c2cc(NC(=O)Nc3ccc(C(F)(F)F)cc3)ccc2O[C@@H](C)CCCCO[C@H]1CN(C)C(=O)CCCN(C)C | inactive | inactive | inactive |
| C[C@H](CO)N1C[C@H](C)[C@@H](CN(C)S(=O)(=O)c2cn(C)cn2)Oc2c(NC(=O)CCC(F)(F)F)cccc2C1=O | inactive | inactive | inactive |
| CC(C)NC(=O)Nc1ccc2c(c1)CC(=O)N([C@@H](C)CO)C[C@H](C)[C@H](CN(C)S(=O)(=O)c1ccc(F)cc1)O2 | inactive | inactive | inactive |
| C[C@@H]1CN([C@@H](C)CO)C(=O)c2cc(NC(=O)Cn3cnnn3)ccc2O[C@H]1CN(C)S(=O)(=O)c1ccc(F)cc1 | inactive | inactive | inactive |
| C[C@@H]1CN([C@H](C)CO)C(=O)c2cc(C#CCN(C)C)cnc2O[C@@H]1CN(C)C(=O)c1ccc2c(c1)OCO2 | inactive | inactive | inactive |
| C[C@@H]1CN([C@@H](C)CO)C(=O)c2cccc(NC(=O)C3CCCCC3)c2O[C@@H]1CN(C)C(=O)Nc1cccc2ccccc12 | inactive | inactive | inactive |
| CCS(=O)(=O)Nc1ccc2c(c1)C(=O)N(C)[C@H]1CC[C@@H](CC(=O)N[C@@H]3CCN(Cc4ccccc4)C3)O[C@@H]1CO2 | inactive | inactive | inactive |
| CN(C)CCCNC(=O)C[C@@H]1CC[C@H]2[C@H](COc3ccc(NC(=O)c4cccc(F)c4)cc3C(=O)N2C)O1 | inactive | inactive | inactive |
| CS(=O)(=O)NCc1ncn2c1CN(C(=O)[C@H]1CCCO1)CCC2 | inactive | inactive | inactive |
| CCOc1ccc2nc(S(N)(=O)=O)sc2c1 | inactive | inactive | inactive |
| CC(C)(C)c1ccc(NC(=O)c2ccc(C(C)(C)C)s2)cc1 | inactive | inactive | inactive |
| C[C@@H]1CCCCO[C@@H](CN(C)C(=O)Nc2ccccc2)[C@H](C)CN([C@@H](C)CO)C(=O)c2cc(NS(=O)(=O)c3ccc(Cl)cc3)ccc2O1 | inactive | inactive | inactive |
| COc1ccc(S(=O)(=O)N(C)C[C@@H]2Oc3ccc(NC(=O)c4ccncc4)cc3C(=O)N([C@@H](C)CO)C[C@@H]2C)cc1 | inactive | inactive | inactive |
| Cl.Cl.N=C(N)N | inactive | inactive | inactive |
| O=C(C[C@@H]1CC[C@H]2[C@@H](COC[C@@H](O)CN2Cc2cc(F)ccc2F)O1)N[C@H]1CCN(Cc2ccccc2)C1 | inactive | inactive | inactive |
| C[C@@H]1CN([C@@H](C)CO)C(=O)c2cccc(NS(=O)(=O)c3ccccc3)c2O[C@H]1CN(C)Cc1ccc(Oc2ccccc2)cc1 | inactive | inactive | inactive |
| C[C@H]1CN([C@@H](C)CO)C(=O)c2cc(NS(=O)(=O)c3cn(C)cn3)ccc2O[C@H]1CN(C)Cc1ccc(C(=O)O)cc1 | inactive | inactive | inactive |
| O=C(C[C@H]1C[C@H]2c3cc(NS(=O)(=O)c4ccc(F)cc4)ccc3O[C@H]2[C@@H](CO)O1)NCCN1CCCCC1 | inactive | inactive | inactive |

From the antibiotic and cytotoxicity screens of Wong et al. (2023)
